Laboratory results published in PMC7096384, “Antiviral Activity of Chicken Cathelicidin B1 Against Influenza A Virus” (Frontiers in Microbiology, 2020).

Experiments:
H1N1/PR8 = assay type: cell-based, Influenza A virus
H5N1 = assay type: cell-based, Influenza A virus
H3N1 = assay type: cell-based, Influenza A virus; conditions: dose response (Figure 2), HD11 and MDCK cells; two independent experiments
[1] = tested on: PR8-induced gene expression of cytokines in HD11 macrophages; assay type: cell-based, chicken
erythrocytes = experiment: Hemagglutination inhibition assay (lysis of erythrocytes); assay type: cell-based; conditions: seen in the hemagglutination inhibition assay
[2] = tested on: IAV strains (H1N1/PR8, H3N1 and H5N1); assay type: cell-based, Influenza A virus
HD11 cells = experiment: Cell viability, WST-1 assay, HD11 cells; assay type: cell-based, chicken; conditions: 10 μM peptide, 1 h with peptide then further incubation, 24 h in total; three independent experiments

“LLGDFFRKSKEKIGKEFK RIVQRIKDFLRNLVPRTES [LL-37, human cathelicidin, 37 amino acids, used for comparison, reference compound]” was tested, and the “antiviral activity against H1N1” value (H1N1/PR8) was “to a lower extent H1N1” and the “antiviral activity against H5N1” value (H5N1) was “not against H5N1”.
For “PIRNWWIRIWEWLNGIRK RLRQRSPFYVRGHLNVTSTPQP [CATH-B1, chicken cathelicidin, 40 amino acids, synthesized by Fmoc-chemistry]”, the “inhibition of viral infectivity, dose-dependent, H1N1” value (H1N1/PR8; dose response (Figure 2), HD11 and MDCK cells, two independent experiments) was “almost complete inhibition”, the “inhibition of viral infectivity, dose-dependent, H3N1” value (H3N1) was “almost complete inhibition” and the “inhibition of viral infectivity, dose-dependent, H5N1” value (H5N1) was 85%. The “effect on virus-induced gene expression with pre- or post-incubation” value [1] was “diminished”, the “relative mRNA level of IFN-α” value [1] was “unaffected” and the lysis of erythrocytes (erythrocytes) was “to some extent induced lysis of erythrocytes”.
For “RIIDLLWRVRRPQKPKFVTVWVR [PMAP-23, porcine cathelicidin, used for comparison]”, the “inhibition of viral infection” value [2] was “did not significantly inhibit infection”.
“RVKRFWPLVPVAINTVAAGINLYKAIRRK [CATH-3, chicken cathelicidin, 29 amino acids]” was tested, and the “cytotoxicity to HD11 cells (WST metabolic activity)” value (HD11 cells) was “cytotoxicity was observed”.
